We go through six molecules from US20250361279A1 (Hoffmann-La Roche, published 2025).

T1: IL-7 receptor (IL-7R alpha chain and common gamma chain) on human T cells (human, UniProt P16871 21-459; P31785 23-369)
T1 sequence (looked up) 1: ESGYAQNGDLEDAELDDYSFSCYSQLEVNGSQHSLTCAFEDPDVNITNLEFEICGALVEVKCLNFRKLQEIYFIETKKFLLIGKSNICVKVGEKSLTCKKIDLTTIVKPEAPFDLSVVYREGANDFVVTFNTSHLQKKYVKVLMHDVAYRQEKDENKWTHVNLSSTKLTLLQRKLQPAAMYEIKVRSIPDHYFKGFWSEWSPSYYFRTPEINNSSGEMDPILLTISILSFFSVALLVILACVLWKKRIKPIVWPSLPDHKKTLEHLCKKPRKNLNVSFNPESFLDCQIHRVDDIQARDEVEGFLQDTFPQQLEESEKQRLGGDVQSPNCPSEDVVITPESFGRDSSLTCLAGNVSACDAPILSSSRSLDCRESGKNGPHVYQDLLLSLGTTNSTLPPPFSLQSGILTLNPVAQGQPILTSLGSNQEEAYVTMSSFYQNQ
T1 sequence (looked up) 2: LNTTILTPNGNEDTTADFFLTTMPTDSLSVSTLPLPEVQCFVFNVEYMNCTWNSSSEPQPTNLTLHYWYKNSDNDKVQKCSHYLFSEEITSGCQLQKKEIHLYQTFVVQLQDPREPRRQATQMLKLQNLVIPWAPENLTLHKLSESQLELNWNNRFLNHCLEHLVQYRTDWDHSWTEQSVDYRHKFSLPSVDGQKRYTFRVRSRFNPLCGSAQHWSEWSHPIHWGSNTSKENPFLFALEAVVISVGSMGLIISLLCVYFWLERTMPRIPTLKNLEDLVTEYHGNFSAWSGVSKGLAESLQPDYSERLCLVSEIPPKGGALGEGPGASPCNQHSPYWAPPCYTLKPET

B1: P1AG3727 (PD1-IL7var18_21, partially glycosylated; IL7 K81E, G85E, T93A, S118A; (G4S)2G4 linker) (other)
light: DIVMTQSPDSLAVSLGERATINCKASESVDTSDNSFIHWYQQKPGQSPKLLIYRSSTLESGVPDRFSGSGSGTDFTLTISSLQAEDVAVYYCQQNYDVPWTFGQGTKVEIKRTVAAPSVFIFPPSDEQLKSGTASVVCLLNNFYPREAKVQWKVDNALQSGNSQESVTEQDSKDSTYSLSSTLTLSKADYEKHKVYACEVTHQGLSSPVTKSFNRGEC
heavy 1: EVQLLESGGGLVQPGGSLRLSCAASGFSFSSYTMSWVRQAPGKGLEWVATISGGGRDIYYPDSVKGRFTISRDNSKNTLYLQMNSLRAEDTAVYYCVLLTGRVYFALDSWGQGTLVTVSSASTKGPSVFPLAPSSKSTSGGTAALGCLVKDYFPEPVTVSWNSGALTSGVHTFPAVLQSSGLYSLSSVVTVPSSSLGTQTYICNVNHKPSNTKVDKKVEPKSCDKTHTCPPCPAPEAAGGPSVFLFPPKPKDTLMISRTPEVTCVVVDVSHEDPEVKFNWYVDGVEVHNAKTKPREEQYNSTYRVVSVLTVLHQDWLNGKEYKCKVSNKALGAPIEKTISKAKGQPREPQVCTLPPSRDELTKNQVSLSCAVKGFYPSDIAVEWESNGQPENNYKTTPPVLDSDGSFFLVSKLTVDKSRWQQGNVFSCSVMHEALHNHYTQKSLSLSPG
heavy 2: EVQLLESGGGLVQPGGSLRLSCAASGFSFSSYTMSWVRQAPGKGLEWVATISGGGRDIYYPDSVKGRFTISRDNSKNTLYLQMNSLRAEDTAVYYCVLLTGRVYFALDSWGQGTLVTVSSASTKGPSVFPLAPSSKSTSGGTAALGCLVKDYFPEPVTVSWNSGALTSGVHTFPAVLQSSGLYSLSSVVTVPSSSLGTQTYICNVNHKPSNTKVDKKV[sequence of human IgG1 Fc with changes omitted]GGGGSGGGGSGGGGDCDIEGKDGKQYESVLMVSIDQLLDSMKEIGSNCLNNEFNFFKRHICDANKEGMFLFRAARKLRQFLKMNSTGDFDLHLLEVSEETTILLNCAGQVKGRKPAALGEAQPTKSLEENKALKEQKKLNDLCFLKRLLQEIKTCWNKILMGTKEH
B2: P1AH6003 (new PD1-IL7v, fully glycosylated; IL7 V15A, G85K; (G2SG2)3 linker) (other)
light: B1 light
heavy 1: B1 heavy 1
heavy 2: EVQLLESGGGLVQPGGSLRLSCAASGFSFSSYTMSWVRQAPGKGLEWVATISGGGRDIYYPDSVKGRFTISRDNSKNTLYLQMNSLRAEDTAVYYCVLLTGRVYFALDSWGQGTLVTVSSASTKGPSVFPLAPSSKSTSGGTAALGCLVKDYFPEPVTVSWNSGALTSGVHTFPAVLQSSGLYSLSSVVTVPSSSLGTQTYICNVNHKPSNTKVDKKV[sequence of human IgG1 Fc with changes omitted]GGSGGGGSGGGGSGGDCDIEGKDGKQYESALMVSIDQLLDSMKEIGSNCLNNEFNFFKRHICDANKEGMFLFRAARKLRQFLKMNSTGDFDLHLLKVSEKTTILLNCTGQVKGRKPAALGEAQPTKSLEENKSLKEQKKLNDLCFLKRLLQEIKTCWNKILMGTKEH
B3: P1AG3048 (PD1-IL7var18_21, fully glycosylated; IL7 K81E, G85E; (G4S)2G4 linker) (other)
light: B1 light
heavy 1: B1 heavy 1
heavy 2: EVQLLESGGGLVQPGGSLRLSCAASGFSFSSYTMSWVRQAPGKGLEWVATISGGGRDIYYPDSVKGRFTISRDNSKNTLYLQMNSLRAEDTAVYYCVLLTGRVYFALDSWGQGTLVTVSSASTKGPSVFPLAPSSKSTSGGTAALGCLVKDYFPEPVTVSWNSGALTSGVHTFPAVLQSSGLYSLSSVVTVPSSSLGTQTYICNVNHKPSNTKVDKKV[sequence of human IgG1 Fc with changes omitted]GGGGSGGGGSGGGGDCDIEGKDGKQYESVLMVSIDQLLDSMKEIGSNCLNNEFNFFKRHICDANKEGMFLFRAARKLRQFLKMNSTGDFDLHLLEVSEETTILLNCTGQVKGRKPAALGEAQPTKSLEENKSLKEQKKLNDLCFLKRLLQEIKTCWNKILMGTKEH
B4: P1AH6002 (new PD1-IL7v, fully glycosylated; IL7 V15A, K81A; (G2SG2)3 linker) (other)
light: B1 light
heavy 1: B1 heavy 1
heavy 2: EVQLLESGGGLVQPGGSLRLSCAASGFSFSSYTMSWVRQAPGKGLEWVATISGGGRDIYYPDSVKGRFTISRDNSKNTLYLQMNSLRAEDTAVYYCVLLTGRVYFALDSWGQGTLVTVSSASTKGPSVFPLAPSSKSTSGGTAALGCLVKDYFPEPVTVSWNSGALTSGVHTFPAVLQSSGLYSLSSVVTVPSSSLGTQTYICNVNHKPSNTKVDKKV[sequence of human IgG1 Fc with changes omitted]GGSGGGGSGGGGSGGDCDIEGKDGKQYESALMVSIDQLLDSMKEIGSNCLNNEFNFFKRHICDANKEGMFLFRAARKLRQFLKMNSTGDFDLHLLAVSEGTTILLNCTGQVKGRKPAALGEAQPTKSLEENKSLKEQKKLNDLCFLKRLLQEIKTCWNKILMGTKEH
B5: P1AH6004 (new PD1-IL7v, fully glycosylated; IL7 V18K, G85K; (G2SG2)3 linker) (other)
light: B1 light
heavy 1: B1 heavy 1
heavy 2: EVQLLESGGGLVQPGGSLRLSCAASGFSFSSYTMSWVRQAPGKGLEWVATISGGGRDIYYPDSVKGRFTISRDNSKNTLYLQMNSLRAEDTAVYYCVLLTGRVYFALDSWGQGTLVTVSSASTKGPSVFPLAPSSKSTSGGTAALGCLVKDYFPEPVTVSWNSGALTSGVHTFPAVLQSSGLYSLSSVVTVPSSSLGTQTYICNVNHKPSNTKVDKKV[sequence of human IgG1 Fc with changes omitted]GGSGGGGSGGGGSGGDCDIEGKDGKQYESVLMKSIDQLLDSMKEIGSNCLNNEFNFFKRHICDANKEGMFLFRAARKLRQFLKMNSTGDFDLHLLKVSEKTTILLNCTGQVKGRKPAALGEAQPTKSLEENKSLKEQKKLNDLCFLKRLLQEIKTCWNKILMGTKEH
B6: P1AH6025 (new PD1-IL7v, fully glycosylated; IL7 L77K, G85E; (G2SG2)3 linker) (other)
light: B1 light
heavy 1: B1 heavy 1
heavy 2: EVQLLESGGGLVQPGGSLRLSCAASGFSFSSYTMSWVRQAPGKGLEWVATISGGGRDIYYPDSVKGRFTISRDNSKNTLYLQMNSLRAEDTAVYYCVLLTGRVYFALDSWGQGTLVTVSSASTKGPSVFPLAPSSKSTSGGTAALGCLVKDYFPEPVTVSWNSGALTSGVHTFPAVLQSSGLYSLSSVVTVPSSSLGTQTYICNVNHKPSNTKVDKKV[sequence of human IgG1 Fc with changes omitted]GGSGGGGSGGGGSGGDCDIEGKDGKQYESVLMVSIDQLLDSMKEIGSNCLNNEFNFFKRHICDANKEGMFLFRAARKLRQFLKMNSTGDFDKHLLKVSEETTILLNCTGQVKGRKPAALGEAQPTKSLEENKSLKEQKKLNDLCFLKRLLQEIKTCWNKILMGTKEH

The target of the first assay is T1, IL-7 receptor (IL-7R alpha chain and …). Put plainly: cell-based or functional assay.
For B1, the “Potency reduction to PD1-IL7wt: EC50 (PD1+)/EC50 (PD1-IL7wt)” value (shortened to “Potency reduction to PD1-IL7wt: EC50”) stood at 795 fold; the “STAT-5P AUC, PD1+ CD4 T cells” value turned out to be 15.3; the “STAT-5P AUC, PD1-blocked CD4 T cells” value was found to be 7.8.
With B2, the “Potency reduction to PD1-IL7wt: EC50” value came out at 140 fold; the “STAT-5P AUC, PD1+ CD4 T cells” value was determined as 16.6; the “STAT-5P AUC, PD1-blocked CD4 T cells” value was 4.2.
Consider B3, for which the “Potency reduction to PD1-IL7wt: EC50” value turned out to be 874 fold; the “STAT-5P AUC, PD1+ CD4 T cells” value came out at 13.1; the “STAT-5P AUC, PD1-blocked CD4 T cells” value worked out at 6.1.
As to B4, the “Potency reduction to PD1-IL7wt: EC50” value came out at 52.6 fold; the “STAT-5P AUC, PD1+ CD4 T cells” value amounted to 57.1; the “STAT-5P AUC, PD1-blocked CD4 T cells” value came to 16.7.
On the same counts, the results for B5 are 80.2 fold, 14.1 and 3.4.

The target of another assay is T2, human PD-1 on activated CD4 T cells (human, UniProt Q15116 25-288). The assay can be described thus: cell-based or functional assay.
Consider B1, for which the “Cis-delivery: fold increase in EC50, EC50 [with PD1bl]/EC50 [no PD1bl]” value (shortened to “Cis-delivery: fold increase in EC50 … [no PD1bl]”) worked out at 3.8 fold and the “Delta AUC (PD1+ vs PD1bl.)” value is 7.4.
Regarding B2, the “Cis-delivery: fold increase in EC50 … [no PD1bl]” value is 4.1 fold and the “Delta AUC (PD1+ vs PD1bl.)” value worked out at 12.4.
Regarding B3, the “Cis-delivery: fold increase in EC50 … [no PD1bl]” value was determined as 12.4 fold and the “Delta AUC (PD1+ vs PD1bl.)” value was found to be 7.
Turning to B4, the “Cis-delivery: fold increase in EC50 … [no PD1bl]” value came out at 31.7 fold and the “Delta AUC (PD1+ vs PD1bl.)” value turned out to be 40.4.
Consider B5, for which the “Cis-delivery: fold increase in EC50 … [no PD1bl]” value was 0.1 fold and the “Delta AUC (PD1+ vs PD1bl.)” value was determined as 10.6.

The next assay has as its target T1, IL-7 receptor (IL-7R alpha chain and …). The assay can be described thus: cell-based or functional assay. The source holds these as a separate data set.
In the case of B1, the “Potency reduction to PD1-IL7wt: EC50” value stood at 625 fold; the “STAT-5P AUC, PD1+ CD4 T cells” value was determined as 22; the “STAT-5P AUC, PD1-blocked CD4 T cells” value was found to be 15.1.
Take B3: the “Potency reduction to PD1-IL7wt: EC50” value is 299 fold; the “STAT-5P AUC, PD1+ CD4 T cells” value amounted to 19.2; the “STAT-5P AUC, PD1-blocked CD4 T cells” value was 12.3.
The matching figures for B6: 77.8 fold, 19.9 and 4.8.

The next assay concerns the target T2, human PD-1 on activated CD4 T cells. Put plainly: cell-based or functional assay. This is another data set of the same source.
Turning to B1, the “Cis-delivery: fold increase in EC50 … [no PD1bl]” value was 2 fold and the “Delta AUC (PD1+ vs PD1bl.)” value came out at 6.9.
For B3, the “Cis-delivery: fold increase in EC50 … [no PD1bl]” value came out at 0.001 fold and the “Delta AUC (PD1+ vs PD1bl.)” value was determined as 7.
Consider B6, for which the “Cis-delivery: fold increase in EC50 … [no PD1bl]” value was found to be 0.01 fold and the “Delta AUC (PD1+ vs PD1bl.)” value was determined as 15.1.

The next assay concerns the target T1, IL-7 receptor (IL-7R alpha chain and …). Put plainly: cell-based or functional assay. The source holds these as a separate data set.
For the molecule B4, the “Percentage of rescued Granzyme B production by Tconv (Treg suppression assay, 6 nM)” value turned out to be 46.8% and the “Percentage of suppressed Granzyme B production by Tconv (Treg suppression assay, 6 nM)” value came to 53.2%.
In the case of B6, the “Percentage of rescued Granzyme B production by Tconv (Treg suppression assay, 6 nM)” value was 31.2% and the “Percentage of suppressed Granzyme B production by Tconv (Treg suppression assay, 6 nM)” value was found to be 68.8%.
As to B5, the “Percentage of rescued Granzyme B production by Tconv (Treg suppression assay, 6 nM)” value was found to be 20.1% and the “Percentage of suppressed Granzyme B production by Tconv (Treg suppression assay, 6 nM)” value worked out at 79.9%.
